# This is one part of the list.
# B1: PX15618B-bfa-464-25-464 (Bacteroides fragilis) (protein)
# chain: DQEPPLYVNENDIFTSPTRIEATLNGLYAAIKNTGTKSLMGGKSYLVFDNRGDDVINISNNLVTLFNTYNMNVGITDAENADTWTYAYLAINKVNTFLQSLEGAREVAGENYDRYVQEAKFVRALAYYYLNNLYPTPYSVNPDAKSVPLRLTAEAGTENNNMPRSTVKQIYEHILSDLENISALDTEVNTYTGVTHATQAAANMLKMRVYMAMNEWDKAITAGELVTGYSLPEDVTLIYKAPYFSQESIFSLPMADTNIPNTQQSLAEYYYDGKIMLIDTKSGIMSKPDYSLATDKRIIAFKGEKDLLMKFTDAKTKLQWVPIFRYAETLLDLAECYANKAGGEATAKSLLKQVRGRSVDAATDPLNIDNLSGDALKEAIYNEKRLEFIGEGIRGIDIMRRGEHFIKVGENETINVGPSDEKYTWPIPQVELLLNKDINK
# Tests used:
# Assay in all cases: glycan array binding signal (z-score within array); higher = stronger binding
# Details in all cases: glycan notation: IUPAC condensed, linker removed
# [1] = molecular target: Neu5Ac(a2-3)Gal(b1-3)GalNAc
# In short: (§1)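 Glycan array binding is given as a within-array Z-score, which can be read as non-binding when negative. The arrays, 3228 of them, came from the Consortium for Functional Glycomics database and were retained only where the protein sequence was available. Z-scores were averaged across arrays of the same protein sequence at different concentrations or buffers and across linkers.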
# [2] = molecular target: Neu5Ac(a2-3)Gal(b1-3)GalNAc(b1-3)Gal(a1-4)Gal(b1-4)Glc
# In short: as §1
# [3] = molecular target: Neu5Ac(a2-3)Gal(b1-3)GalNAc(b1-4)[Neu5Ac(a2-3)]Gal(b1-4)Glc
# In short: as §1
# [4] = molecular target: Neu5Ac(a2-3)Gal(b1-3)GalNAc(b1-4)[Neu5Ac(a2-8)Neu5Ac(a2-3)]Gal(b1-4)Glc
# In short: as §1
# [5] = molecular target: Neu5Ac(a2-3)Gal(b1-3)GalNAc6S
# In short: as §1
# [6] = molecular target: Neu5Ac(a2-3)Gal(b1-3)GlcNAc
# In short: as §1
# [7] = molecular target: Neu5Ac(a2-3)Gal(b1-3)GlcNAc(b1-2)Man
# In short: as §1
# [8] = molecular target: Neu5Ac(a2-3)Gal(b1-3)GlcNAc(b1-2)Man(a1-3)[GlcNAc(b1-4)][Neu5Ac(a2-3)Gal(b1-3)GlcNAc(b1-2)Man(a1-6)]Man(b1-4)GlcNAc(b1-4)GlcNAc
# In short: as §1
# [9] = molecular target: Neu5Ac(a2-3)Gal(b1-3)GlcNAc(b1-2)Man(a1-3)[Neu5Ac(a2-3)Gal(b1-3)GlcNAc(b1-2)Man(a1-6)]Man(b1-4)GlcNAc(b1-4)GlcNAc
# In short: as §1
# [10] = molecular target: Neu5Ac(a2-3)Gal(b1-3)GlcNAc(b1-3)Gal(b1-3)GlcNAc
# In short: as §1
# [11] = molecular target: Neu5Ac(a2-3)Gal(b1-3)GlcNAc(b1-3)Gal(b1-4)GlcNAc
# In short: as §1
# [12] = molecular target: Neu5Ac(a2-3)Gal(b1-3)GlcNAc(b1-3)GalNAc
# In short: as §1
# [13] = molecular target: Neu5Ac(a2-3)Gal(b1-3)GlcNAc(b1-4)Gal(b1-4)Glc
# In short: as §1
# [14] = molecular target: Neu5Ac(a2-3)Gal(b1-3)GlcNAc(b1-6)GalNAc
# In short: as §1
# [15] = molecular target: Neu5Ac(a2-3)Gal(b1-3)GlcNAc6S
# In short: as §1
# [16] = molecular target: Neu5Ac(a2-3)Gal(b1-3)[Fuc(a1-4)]GlcNAc
# In short: as §1
# [17] = molecular target: Neu5Ac(a2-3)Gal(b1-3)[Fuc(a1-4)]GlcNAc(b1-3)Gal(b1-3)[Fuc(a1-4)]GlcNAc
# In short: as §1
# [18] = molecular target: Neu5Ac(a2-3)Gal(b1-3)[Fuc(a1-4)]GlcNAc(b1-3)Gal(b1-4)[Fuc(a1-3)]GlcNAc
# In short: as §1
# [19] = molecular target: Neu5Ac(a2-3)Gal(b1-3)[GlcNAc(b1-6)]GalNAc
# In short: as §1
# [20] = molecular target: Neu5Ac(a2-3)Gal(b1-3)[Neu5Ac(a2-6)]GalNAc
# In short: as §1
# [21] = molecular target: Neu5Ac(a2-3)Gal(b1-3)[Neu5Ac(a2-6)]GlcNAc(b1-3)[Fuc(a1-3)[Gal(b1-4)]GlcNAc(b1-6)]Gal(b1-4)Glc
# In short: as §1
# [22] = molecular target: Neu5Ac(a2-3)Gal(b1-3)]Neu5Ac(a2-3)Gal(b1-4)]GlcNAc
# In short: as §1
# Neu5Ac(a2-3)Gal(b1-4)Glc = molecular target: Neu5Ac(a2-3)Gal(b1-4)Glc
# In short: as §1
# [23] = molecular target: Neu5Ac(a2-3)Gal(b1-4)GlcNAc
# In short: as §1
# [24] = molecular target: Neu5Ac(a2-3)Gal(b1-4)GlcNAc(b1-2)Man
# In short: as §1
# [25] = molecular target: Neu5Ac(a2-3)Gal(b1-4)GlcNAc(b1-2)Man(a1-3)[GlcNAc(b1-4)][Neu5Ac(a2-3)Gal(b1-4)GlcNAc(b1-2)Man(a1-6)]Man(b1-4)GlcNAc(b1-4)GlcNAc
# In short: as §1
# [26] = molecular target: Neu5Ac(a2-3)Gal(b1-4)GlcNAc(b1-2)Man(a1-3)[Neu5Ac(a2-3)Gal(b1-4)GlcNAc(b1-2)Man(a1-6)]Man(b1-4)GlcNAc(b1-4)GlcNAc
# In short: as §1
# [27] = molecular target: Neu5Ac(a2-3)Gal(b1-4)GlcNAc(b1-2)Man(a1-3)[Neu5Ac(a2-3)Gal(b1-4)GlcNAc(b1-2)Man(a1-6)]Man(b1-4)GlcNAc(b1-4)[Fuc(a1-6)]GlcNAc
# In short: as §1
# [28] = molecular target: Neu5Ac(a2-3)Gal(b1-4)GlcNAc(b1-2)Man(a1-3)[Neu5Ac(a2-6)Gal(b1-4)GlcNAc(b1-2)Man(a1-6)]Man(b1-4)GlcNAc(b1-4)GlcNAc
# In short: as §1
# [29] = molecular target: Neu5Ac(a2-3)Gal(b1-4)GlcNAc(b1-2)[Neu5Ac(a2-3)Gal(b1-4)GlcNAc(b1-4)]Man(a1-3)[GlcNAc(b1-4)][Neu5Ac(a2-3)Gal(b1-4)GlcNAc(b1-2)[Neu5Ac(a2-3)Gal(b1-4)GlcNAc(b1-6)]Man(a1-6)]Man(b1-4)GlcNAc(b1-4)GlcNAc
# In short: as §1
# [30] = molecular target: Neu5Ac(a2-3)Gal(b1-4)GlcNAc(b1-2)[Neu5Ac(a2-3)Gal(b1-4)GlcNAc(b1-4)]Man(a1-3)[GlcNAc(b1-4)][Neu5Ac(a2-3)Gal(b1-4)GlcNAc(b1-4)Man(a1-6)]Man(b1-4)GlcNAc(b1-4)GlcNAc
# In short: as §1
# [31] = molecular target: Neu5Ac(a2-3)Gal(b1-4)GlcNAc(b1-2)[Neu5Ac(a2-3)Gal(b1-4)GlcNAc(b1-6)]Man(a1-6)[Neu5Ac(a2-3)Gal(b1-4)GlcNAc(b1-2)Man(a1-3)]Man(b1-4)GlcNAc(b1-4)GlcNAc
# In short: as §1
# [32] = molecular target: Neu5Ac(a2-3)Gal(b1-4)GlcNAc(b1-2)[Neu5Ac(a2-3)Gal(b1-4)GlcNAc(b1-6)]Man(a1-6)[Neu5Ac(a2-3)Gal(b1-4)GlcNAc(b1-2)Man(a1-3)][GlcNAc(b1-4)]Man(b1-4)GlcNAc(b1-4)GlcNAc
# In short: as §1
# [33] = molecular target: Neu5Ac(a2-3)Gal(b1-4)GlcNAc(b1-3)Gal
# In short: as §1
# [34] = molecular target: Neu5Ac(a2-3)Gal(b1-4)GlcNAc(b1-3)Gal(b1-3)GlcNAc
# In short: as §1
# [35] = molecular target: Neu5Ac(a2-3)Gal(b1-4)GlcNAc(b1-3)Gal(b1-4)GlcNAc
# In short: as §1
# [36] = molecular target: Neu5Ac(a2-3)Gal(b1-4)GlcNAc(b1-3)Gal(b1-4)GlcNAc(b1-2)Man(a1-3)[Neu5Ac(a2-3)Gal(b1-4)GlcNAc(b1-3)Gal(b1-4)GlcNAc(b1-2)Man(a1-6)]Man(b1-4)GlcNAc(b1-4)GlcNAc
# In short: as §1
binder,measurement,setting,value
B1,glycan array binding signal (z-score),[1],-0.426
same,glycan array binding signal (z-score),[2],0.658
same,glycan array binding signal (z-score),[3],-0.309
same,glycan array binding signal (z-score),[4],-0.526
same,glycan array binding signal (z-score),[5],0.024
same,glycan array binding signal (z-score),[6],-0.219
same,glycan array binding signal (z-score),[7],-0.66
same,glycan array binding signal (z-score),[8],0.609
same,glycan array binding signal (z-score),[9],-0.136
same,glycan array binding signal (z-score),[10],-0.299
same,glycan array binding signal (z-score),[11],-0.249
same,glycan array binding signal (z-score),[12],-0.384
same,glycan array binding signal (z-score),[13],-0.752
same,glycan array binding signal (z-score),[14],-0.298
same,glycan array binding signal (z-score),[15],-0.374
same,glycan array binding signal (z-score),[16],-0.454
same,glycan array binding signal (z-score),[17],-0.054
same,glycan array binding signal (z-score),[18],-0.069
same,glycan array binding signal (z-score),[19],-0.588
same,glycan array binding signal (z-score),[20],0.363
same,glycan array binding signal (z-score),[21],0.835
same,glycan array binding signal (z-score),[22],-0.545
same,glycan array binding signal (z-score),Neu5Ac(a2-3)Gal(b1-4)Glc,0.019
same,glycan array binding signal (z-score),[23],-0.082
same,glycan array binding signal (z-score),[24],-0.153
same,glycan array binding signal (z-score),[25],-0.355
same,glycan array binding signal (z-score),[26],0.297
same,glycan array binding signal (z-score),[27],-0.2
same,glycan array binding signal (z-score),[28],-0.086
same,glycan array binding signal (z-score),[29],-0.927
same,glycan array binding signal (z-score),[30],0.333
same,glycan array binding signal (z-score),[31],0.705
same,glycan array binding signal (z-score),[32],-0.203
same,glycan array binding signal (z-score),[33],-0.438
same,glycan array binding signal (z-score),[34],-0.326
same,glycan array binding signal (z-score),[35],-0.253
same,glycan array binding signal (z-score),[36],-0.292

# Reference: the supplement of paper PMC8728848
